The text below walks through data of publication PMC12820563, “FoxP3 forms a head-to-head dimer in vivo and stabilizes its multimerization on adjacent microsatellites”.

The other results are listed elsewhere or left out.

The target in the assay is T1, MBP-FoxP1dN (Mus musculus, UniProt P58462 326-579).
T1 sequence: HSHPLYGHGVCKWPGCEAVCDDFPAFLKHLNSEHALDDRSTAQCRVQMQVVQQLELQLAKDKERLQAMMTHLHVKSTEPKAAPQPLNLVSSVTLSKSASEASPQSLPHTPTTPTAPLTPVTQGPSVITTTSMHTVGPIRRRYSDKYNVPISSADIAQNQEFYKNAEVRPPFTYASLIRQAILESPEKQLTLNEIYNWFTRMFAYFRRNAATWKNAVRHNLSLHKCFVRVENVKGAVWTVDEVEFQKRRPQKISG
Briefly: PD-seq (MBP pull-down with sequencing); 20 mM Tris-HCl pH 7.5, 100 mM NaCl, 1.5 mM MgCl2, 0.4 uM protein, 0.1 uM dsDNA library, 30 min, room temperature, amylose pull-down; high values mean tight binding. Particulars: protein: recombinant; tags: His6-MBP; chain copies: 2; dsDNA, one strand shown. A digest of the protocol:
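A fragment of mouse FoxP3 or FoxP1 without its N-terminus, carrying a His6-MBP tag and produced in E. coli, was combined at 0.4 µM with a 0.1 µM degenerate double-stranded DNA library filled in with Klenow. The mixture sat for 30 min at room temperature in Tris pH 7.5 buffer containing NaCl and MgCl2. Protein–DNA complexes were captured on amylose resin, washed three times, and the DNA was freed with proteinase K, barcoded by PCR and sequenced on Illumina. Binding is expressed as reads-per-million enrichment of pull-down over input, with replicates pooled.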
With “GATGATTGTTCTCCCAGCTGATGAATTCTGATAATCGAGTAAACAAATTTTCCTAATCTTTCTGTTCAAGCGCCATCTAC”, the binding signal is 1.1 RPM ratio (pull-down/input).
Next, “GATGATTGTTCTCCCAGCTGATGAATTAAACGTGTCGAGTAAACAAATTTTCCTAATCTTTCTGTTCAAGCGCCATCTAC”: 1.01 RPM ratio (pull-down/input); “GATGATTGTTCTCCCAGCTGATGAATTGAATCCGTCGAGTAAACAAATTTTCCTAATCTTTCTGTTCAAGCGCCATCTAC”: 0.829 RPM ratio (pull-down/input); “GATGATTGTTCTCCCAGCTGATGAATTACTGAGGTCGAGTAAACAAATTTTCCTAATCTTTCTGTTCAAGCGCCATCTAC”: 0.912 RPM ratio (pull-down/input).
For “GATGATTGTTCTCCCAGCTGATGAATTATAGAGTTCGAGTAAACAAATTTTCCTAATCTTTCTGTTCAAGCGCCATCTAC”, the binding signal is 0.944 RPM ratio (pull-down/input).
On to “GATGATTGTTCTCCCAGCTGATGAATTTCCACTGTCGAGTAAACAAATTTTCCTAATCTTTCTGTTCAAGCGCCATCTAC”, for which the binding signal was 0.825 RPM ratio (pull-down/input).
Regarding “GATGATTGTTCTCCCAGCTGATGAATTTTCATGTTCGAGTAAACAAATTTTCCTAATCTTTCTGTTCAAGCGCCATCTAC”, the binding signal was 0.921 RPM ratio (pull-down/input).
Take “GATGATTGTTCTCCCAGCTGATGAATTATTCAATTCGAGTAAACAAATTTTCCTAATCTTTCTGTTCAAGCGCCATCTAC”: the binding signal is 1.02 RPM ratio (pull-down/input).
With “GATGATTGTTCTCCCAGCTGATGAATTTAATGACTCGAGTAAACAAATTTTCCTAATCTTTCTGTTCAAGCGCCATCTAC”, the binding signal was 0.964 RPM ratio (pull-down/input).
For the sequence “GATGATTGTTCTCCCAGCTGATGAATTGCGATCATCGAGTAAACAAATTTTCCTAATCTTTCTGTTCAAGCGCCATCTAC”, the binding signal is 1.15 RPM ratio (pull-down/input).
As to “GATGATTGTTCTCCCAGCTGATGAATTTTGCATTTCGAGTAAACAAATTTTCCTAATCTTTCTGTTCAAGCGCCATCTAC”, the binding signal is 1.29 RPM ratio (pull-down/input).
Take “GATGATTGTTCTCCCAGCTGATGAATTGGTACGGTCGAGTAAACAAATTTTCCTAATCTTTCTGTTCAAGCGCCATCTAC”: the binding signal is 0.835 RPM ratio (pull-down/input).
The result for “GATGATTGTTCTCCCAGCTGATGAATTGACGTAGTCGAGTAAACAAATTTTCCTAATCTTTCTGTTCAAGCGCCATCTAC” reads 1.08 RPM ratio (pull-down/input); that for “GATGATTGTTCTCCCAGCTGATGAATTGTTTCGGTCGAGTAAACAAATTTTCCTAATCTTTCTGTTCAAGCGCCATCTAC”, 1.18 RPM ratio (pull-down/input); that for “GATGATTGTTCTCCCAGCTGATGAATTAAGTGTTTCGAGTAAACAAATTTTCCTAATCTTTCTGTTCAAGCGCCATCTAC”, 1.09 RPM ratio (pull-down/input).
Next, “GATGATTGTTCTCCCAGCTGATGAATTAGCAATCTCGAGTAAACAAATTTTCCTAATCTTTCTGTTCAAGCGCCATCTAC”: 0.915 RPM ratio (pull-down/input).
As to “GATGATTGTTCTCCCAGCTGATGAATTCCGCATCTCGAGTAAACAAATTTTCCTAATCTTTCTGTTCAAGCGCCATCTAC”, the binding signal was 1.17 RPM ratio (pull-down/input).
In the case of “GATGATTGTTCTCCCAGCTGATGAATTTAATACGTCGAGTAAACAAATTTTCCTAATCTTTCTGTTCAAGCGCCATCTAC”, the binding signal is 0.958 RPM ratio (pull-down/input).
Consider “GATGATTGTTCTCCCAGCTGATGAATTGTGTCATTCGAGTAAACAAATTTTCCTAATCTTTCTGTTCAAGCGCCATCTAC”, for which the binding signal is 1.29 RPM ratio (pull-down/input).
With “GATGATTGTTCTCCCAGCTGATGAATTAAATATTTCGAGTAAACAAATTTTCCTAATCTTTCTGTTCAAGCGCCATCTAC”, the binding signal was 1.14 RPM ratio (pull-down/input).
“GATGATTGTTCTCCCAGCTGATGAATTAGCATTCTCGAGTAAACAAATTTTCCTAATCTTTCTGTTCAAGCGCCATCTAC”: the binding signal is 1.16 RPM ratio (pull-down/input).
Take “GATGATTGTTCTCCCAGCTGATGAATTTAATTATTCGAGTAAACAAATTTTCCTAATCTTTCTGTTCAAGCGCCATCTAC”: the binding signal was 1.16 RPM ratio (pull-down/input).
As for “GATGATTGTTCTCCCAGCTGATGAATTAACCACCTCGAGTAAACAAATTTTCCTAATCTTTCTGTTCAAGCGCCATCTAC”, the binding signal is 0.882 RPM ratio (pull-down/input).
For “GATGATTGTTCTCCCAGCTGATGAATTCATTTTTTCGAGTAAACAAATTTTCCTAATCTTTCTGTTCAAGCGCCATCTAC”, the binding signal is 0.907 RPM ratio (pull-down/input).
Next, “GATGATTGTTCTCCCAGCTGATGAATTTGCAAACTCGAGTAAACAAATTTTCCTAATCTTTCTGTTCAAGCGCCATCTAC”: 1.06 RPM ratio (pull-down/input); “GATGATTGTTCTCCCAGCTGATGAATTGGTCCACTCGAGTAAACAAATTTTCCTAATCTTTCTGTTCAAGCGCCATCTAC”: 0.898 RPM ratio (pull-down/input).
The result for “GATGATTGTTCTCCCAGCTGATGAATTGGATCGATCGAGTAAACAAATTTTCCTAATCTTTCTGTTCAAGCGCCATCTAC” reads 0.817 RPM ratio (pull-down/input); that for “GATGATTGTTCTCCCAGCTGATGAATTGAACTATTCGAGTAAACAAATTTTCCTAATCTTTCTGTTCAAGCGCCATCTAC”, 0.897 RPM ratio (pull-down/input); that for “GATGATTGTTCTCCCAGCTGATGAATTCACATTATCGAGTAAACAAATTTTCCTAATCTTTCTGTTCAAGCGCCATCTAC”, 1.03 RPM ratio (pull-down/input).
Next, “GATGATTGTTCTCCCAGCTGATGAATTGACCCCTTCGAGTAAACAAATTTTCCTAATCTTTCTGTTCAAGCGCCATCTAC”: 0.88 RPM ratio (pull-down/input); “GATGATTGTTCTCCCAGCTGATGAATTACGCTGGTCGAGTAAACAAATTTTCCTAATCTTTCTGTTCAAGCGCCATCTAC”: 0.942 RPM ratio (pull-down/input).
